Experimental data: PubChem BioAssay AID686979 (National Center for Advancing Translational Sciences (NCATS), 2013)
Out of some 420,000 compounds screened, about 50,000 (12%) were called active. The inconclusive results got no clear call from the source; some entries with a clear call stand among them for comparison. The call rests on the fitted dose curve; in most records, active means well fitted inhibition curve with a large enough effect; inconclusive means small, poorly fitted or top-dose-only effect; inactive means flat fitted curve, though single readings scatter. Potencies of inconclusive entries are left out as doubtful fits.

assay: qHTS for Inhibitors of human tyrosyl-DNA phosphodiesterase 1 (TDP1): qHTS in cells in presence of CPT; conditions: chicken DT40 Tdp1-/-;hTDP1 cells + 20 nM CPT, ATP luminescence, 48 h; activity change, negative = growth inhibition: at 46.2 µM (top of the series) unless noted; further: nearly all actives have a fitted effect of over 55% in size
In short: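 Chicken DT40 Tdp1-/- cells stably complemented with human TDP1 were seeded at 400 cells/well in medium containing 20 nM camptothecin, exposed to pin-transferred compounds, and grown at 37 °C for at least 48 hr. Viability was read as ATP luminescence.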
On the % scale 0 is the no-effect control and ±100 the full control effect; potency means the concentration at half of the fitted maximal effect; tags describe the fitted curve by direction and shape.

| Compound | Potency | activity change, negative = growth inhibition |
| --- | --- | --- |
| CCc1nc(SC)ncc1C(=O)N1CCN(c2cc(Cl)ccc2C)CC1 | inconclusive [inhibitor, single point] |  |
| O=C(c1ccc([N+](=O)[O-])cc1)N1CCCC1 | inactive |  |
| Cn1nc(-c2ccccn2)nc2c(=O)n(C)c(=O)nc1-2 | active: 0.651 µM |  |
| CNc1snc(C)c1C(=O)OC(C)C(=O)Nc1ccc(F)cc1 (centres undefined) | inconclusive [inhibitor, single point] |  |
| CCCCNC(=O)CSc1nnc(Cc2ccccc2)n1CC | inactive |  |
| O=C(Nc1scc(-c2ccc(Br)cc2)c1C(=O)O)c1ccccc1F | inconclusive [inhibitor, single point] |  |
| COc1ccc(CNC(=O)COC(=O)CN2C(=O)NC3(CCCC3)C2=O)cc1 | inactive |  |
| CC(C)(C)[C@@H]1COC(=O)[C@@H](Cc2ccc(F)cc2)CC/C=C\C[C@@H](CC(=O)N(CCO)Cc2ccccc2)C(=O)N1 | active: 23.1 µM |  |
| CCC(=O)c1ccc(OCC(O)CNCCc2ccc(Cl)cc2)cc1 (centres undefined) | inconclusive [inhibitor, single point] |  |
| CC(=O)N1c2ccc(S(=O)(=O)N3CCCC(C(=O)NC4CCCC(C)C4C)C3)cc2CC1C (centres undefined) | inconclusive [inhibitor, single point] |  |
| COCCNC(=O)C(OC(=O)C1=Cc2ccccc2OC1)C(C)C (centres undefined) | inactive |  |
| CC(C)CNC(=O)C1(C)CCCN1C(=O)C(C)(C)Oc1ccc(Cl)cc1 (centres undefined) | inconclusive [inhibitor, single point] |  |
| Cc1cc(Cl)ccc1NC(=S)NCC(C)C | inconclusive [inhibitor, single point] |  |
| CC(=O)Oc1ccc(C(=O)Nc2cc(C)ccc2NC(=O)COc2ccccc2)cc1 | inconclusive [inhibitor, single point] |  |
| N#C/C(=C(/O)c1ccc(C(=O)c2ccccc2)cc1)c1nc2ccccc2[nH]1 | inactive |  |
| CC(C)CNc1ncnc2[nH]ncc12 | inactive |  |
| CC(=O)Nc1ccc(OS(=O)(=O)c2ccccc2C)cc1 | inactive |  |
| COc1cc(/C=C(\C#N)c2nc3ccccc3[nH]2)ccc1OCc1ccc(F)cc1 | inactive |  |
| COc1cc(-c2nc(SCC(=O)Nc3ccc(C)cc3)c(-c3ccc(F)cc3)[nH]2)cc(OC)c1OC | inconclusive [inhibitor, single point] |  |
| CCc1ccc(C(=O)NC2CCCCC2)s1 | inconclusive [inhibitor, single point] |  |
| CNc1ccc(Br)cc(C(=O)/C=C/c2ccc(OC)cc2OC)c1=O | active: 9.2 µM |  |
| Cc1ccc(CSCCNC(=O)CSc2ccccc2)cc1 | inactive |  |
| O=C(Nc1ccncc1)C1CCN(S(=O)(=O)c2ccc(Cl)cc2)CC1 | active: 23.1 µM |  |
| Cc1ccc(Cl)cc1NC(=O)C1COc2ccccc2O1 (centres undefined) | inconclusive [inhibitor, single point] |  |
| O=C(CN1CCN(C(=O)c2ccccc2)CC1)Nc1cccc(S(=O)(=O)N2CCCC2)c1 |  | inconclusive: -30.1% [inhibitor] |

| Compound | Potency | activity change, negative = growth inhibition |
| --- | --- | --- |
| Cc1cc(SCC(=O)NCC(c2cccs2)N2CCOCC2)c(C)cc1Br (centres undefined) | inconclusive [inhibitor, single point] |  |
| CCc1ccccc1NC(=O)c1cc(S(=O)(=O)N2CCc3ccccc32)ccc1F | active: 16.4 µM |  |
| CCCn1c2ccccc2c2cnn(CC(=O)NCC3CCN(Cc4ccc(F)cc4)CC3)c(=O)c21 | inconclusive [inhibitor, single point] |  |
| COc1cccc(C(=O)NCC(=O)N2CCC3(CC2)NCCc2[nH]cnc23)c1 | inactive |  |
| CC(C)(C)S(=O)(=O)/C(C#N)=N/Nc1ccc(S(C)(=O)=O)cc1 | inactive |  |
| Cc1cc(NC(=O)CSc2nnc(-c3ccccc3F)n2N)no1 | inactive |  |
| CC(C)CC(NC(N)=O)C(=O)Nc1ccc(Oc2ccccc2)cc1 (centres undefined) | inactive |  |
| Cc1cccc(-c2nn3c(=O)cc(CN4CCN(C(=O)c5ccccc5Br)CC4)nc3s2)c1 | inactive |  |
| O=C(Nc1cccc(C(F)(F)F)c1)C1CC(=O)N(CCc2ccccc2)C1 (centres undefined) | inconclusive [inhibitor, partial curve] |  |
| O=C(N/N=C/c1ccc(O)c(O)c1O)/C(=C/c1ccc([N+](=O)[O-])cc1)NC(=O)c1ccccc1 | active: 4.61 µM |  |
| O=C(c1cc(Br)ccc1O)N1CCN(S(=O)(=O)Cc2ccccc2)CC1 | inconclusive [inhibitor, partial curve] |  |
| COc1cc(C2C(C#N)=C(N)Oc3cc(C)n(CCN4CCOCC4)c(=O)c32)cc(OC)c1OC (centres undefined) | inconclusive [inhibitor, partial curve, poor fit] |  |
| Cc1nc(CC(=O)NNS(=O)(=O)c2cccc(Cl)c2Cl)cs1 | inactive |  |
| OC(COc1cccc2ccccc12)CN1CCCC1 (centres undefined) | inactive |  |
| CCOC(=O)/C=C/C(=O)Nc1cccc([N+](=O)[O-])c1 | active: 1.64 µM |  |
| NC(=O)c1sc2nc3c(cc2c1N)CCCCCC3 | inconclusive [inhibitor, partial curve, poor fit] |  |
| Cc1ccccc1CNC(=O)C1=Cc2ccccc2OC1 | inconclusive [inhibitor, single point] |  |
| O=C(CN1CCCCC1)Nc1ccccc1C(=O)NC1CC1 | inactive |  |
| CCCc1nc2cc(C)c(Br)c(C)n2c1CC1CCCCC1 | active: 4.11 µM |  |
| CCOC(=O)c1ccc(NCC(O)COc2ccccc2)cc1 (centres undefined) |  | inconclusive: -36.2% [inhibitor] |
| O=c1cnc2cnc(Nc3ccccc3)nc2n1Cc1cccs1 | inconclusive [inhibitor, partial curve] |  |
| COc1ccc(S(=O)(=O)N2CCCCCC2)cc1C(=O)N(C)Cc1ccccc1F | inconclusive [inhibitor, single point] |  |
| CCOC(=O)c1c(C)[nH]c(C)c1C(=O)COC(=O)COc1ccc(Cl)c(C)c1 | inactive |  |
| CN(Cc1ccc(F)cc1)C(=O)c1cccc(S(=O)(=O)N2CCN(c3ccccc3)CC2)c1 | inconclusive [inhibitor, full curve, poor fit] |  |
